# Experimental data reported in article PMC3694108.
# Amino acid sequences for entries named in this document (tags omitted). A change or cut given only in a name is not applied to a line headed by its entry. Residues count along the entry.
# UniProt P63172: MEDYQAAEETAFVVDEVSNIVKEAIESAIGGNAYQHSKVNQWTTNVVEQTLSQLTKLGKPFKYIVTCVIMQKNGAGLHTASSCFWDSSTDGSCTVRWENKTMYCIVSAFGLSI
# GST-DYNLT1 N-terminus (aa 1–61): residues 1-61 of P63172
# GST-DYNLT1 C-terminus (aa 62–113): residues 62-113 of P63172
# UniProt P31269: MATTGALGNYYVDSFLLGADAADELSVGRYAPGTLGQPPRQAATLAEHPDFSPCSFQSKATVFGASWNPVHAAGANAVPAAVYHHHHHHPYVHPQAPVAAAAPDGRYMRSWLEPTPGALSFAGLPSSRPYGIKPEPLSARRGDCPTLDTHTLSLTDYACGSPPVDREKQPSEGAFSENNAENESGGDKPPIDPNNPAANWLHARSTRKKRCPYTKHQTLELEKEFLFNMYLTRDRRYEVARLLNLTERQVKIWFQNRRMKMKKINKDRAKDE
# UniProt P37198: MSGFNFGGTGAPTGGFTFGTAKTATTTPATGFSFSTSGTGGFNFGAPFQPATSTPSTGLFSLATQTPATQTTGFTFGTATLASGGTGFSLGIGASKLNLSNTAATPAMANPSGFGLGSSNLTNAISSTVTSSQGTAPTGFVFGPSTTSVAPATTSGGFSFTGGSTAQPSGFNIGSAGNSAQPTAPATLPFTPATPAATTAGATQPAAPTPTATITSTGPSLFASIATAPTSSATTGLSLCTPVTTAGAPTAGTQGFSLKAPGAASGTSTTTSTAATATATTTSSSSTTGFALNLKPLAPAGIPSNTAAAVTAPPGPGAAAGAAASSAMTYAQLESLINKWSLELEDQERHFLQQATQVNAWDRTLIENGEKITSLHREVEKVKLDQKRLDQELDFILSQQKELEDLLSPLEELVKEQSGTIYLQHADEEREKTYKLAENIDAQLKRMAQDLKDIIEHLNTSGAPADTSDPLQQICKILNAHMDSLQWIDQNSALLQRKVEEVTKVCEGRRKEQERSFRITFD
# UniProt P52948, residues 1-880: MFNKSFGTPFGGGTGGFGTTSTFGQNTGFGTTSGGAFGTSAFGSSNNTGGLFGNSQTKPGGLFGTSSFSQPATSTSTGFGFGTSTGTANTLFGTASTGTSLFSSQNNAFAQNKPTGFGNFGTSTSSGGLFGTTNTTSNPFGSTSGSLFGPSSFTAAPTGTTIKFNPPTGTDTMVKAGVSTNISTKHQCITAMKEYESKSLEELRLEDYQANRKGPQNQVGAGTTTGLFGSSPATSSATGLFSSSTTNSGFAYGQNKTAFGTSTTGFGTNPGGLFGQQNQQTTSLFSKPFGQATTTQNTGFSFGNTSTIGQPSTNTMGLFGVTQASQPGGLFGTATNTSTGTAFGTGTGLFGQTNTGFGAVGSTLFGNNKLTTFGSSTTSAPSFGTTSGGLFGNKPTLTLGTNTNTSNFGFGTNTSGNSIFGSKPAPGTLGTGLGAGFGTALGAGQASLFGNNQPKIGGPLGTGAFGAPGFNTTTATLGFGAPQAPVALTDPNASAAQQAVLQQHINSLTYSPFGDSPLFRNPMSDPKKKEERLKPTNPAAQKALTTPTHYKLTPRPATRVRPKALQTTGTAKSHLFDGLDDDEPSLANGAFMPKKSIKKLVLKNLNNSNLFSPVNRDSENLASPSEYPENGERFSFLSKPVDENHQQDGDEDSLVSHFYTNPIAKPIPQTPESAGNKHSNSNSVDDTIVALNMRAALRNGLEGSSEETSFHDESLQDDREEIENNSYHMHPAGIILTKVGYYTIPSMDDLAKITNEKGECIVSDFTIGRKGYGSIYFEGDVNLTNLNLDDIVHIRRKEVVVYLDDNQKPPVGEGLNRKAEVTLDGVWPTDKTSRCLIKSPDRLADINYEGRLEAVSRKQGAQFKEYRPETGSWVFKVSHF
# UniProt P49790: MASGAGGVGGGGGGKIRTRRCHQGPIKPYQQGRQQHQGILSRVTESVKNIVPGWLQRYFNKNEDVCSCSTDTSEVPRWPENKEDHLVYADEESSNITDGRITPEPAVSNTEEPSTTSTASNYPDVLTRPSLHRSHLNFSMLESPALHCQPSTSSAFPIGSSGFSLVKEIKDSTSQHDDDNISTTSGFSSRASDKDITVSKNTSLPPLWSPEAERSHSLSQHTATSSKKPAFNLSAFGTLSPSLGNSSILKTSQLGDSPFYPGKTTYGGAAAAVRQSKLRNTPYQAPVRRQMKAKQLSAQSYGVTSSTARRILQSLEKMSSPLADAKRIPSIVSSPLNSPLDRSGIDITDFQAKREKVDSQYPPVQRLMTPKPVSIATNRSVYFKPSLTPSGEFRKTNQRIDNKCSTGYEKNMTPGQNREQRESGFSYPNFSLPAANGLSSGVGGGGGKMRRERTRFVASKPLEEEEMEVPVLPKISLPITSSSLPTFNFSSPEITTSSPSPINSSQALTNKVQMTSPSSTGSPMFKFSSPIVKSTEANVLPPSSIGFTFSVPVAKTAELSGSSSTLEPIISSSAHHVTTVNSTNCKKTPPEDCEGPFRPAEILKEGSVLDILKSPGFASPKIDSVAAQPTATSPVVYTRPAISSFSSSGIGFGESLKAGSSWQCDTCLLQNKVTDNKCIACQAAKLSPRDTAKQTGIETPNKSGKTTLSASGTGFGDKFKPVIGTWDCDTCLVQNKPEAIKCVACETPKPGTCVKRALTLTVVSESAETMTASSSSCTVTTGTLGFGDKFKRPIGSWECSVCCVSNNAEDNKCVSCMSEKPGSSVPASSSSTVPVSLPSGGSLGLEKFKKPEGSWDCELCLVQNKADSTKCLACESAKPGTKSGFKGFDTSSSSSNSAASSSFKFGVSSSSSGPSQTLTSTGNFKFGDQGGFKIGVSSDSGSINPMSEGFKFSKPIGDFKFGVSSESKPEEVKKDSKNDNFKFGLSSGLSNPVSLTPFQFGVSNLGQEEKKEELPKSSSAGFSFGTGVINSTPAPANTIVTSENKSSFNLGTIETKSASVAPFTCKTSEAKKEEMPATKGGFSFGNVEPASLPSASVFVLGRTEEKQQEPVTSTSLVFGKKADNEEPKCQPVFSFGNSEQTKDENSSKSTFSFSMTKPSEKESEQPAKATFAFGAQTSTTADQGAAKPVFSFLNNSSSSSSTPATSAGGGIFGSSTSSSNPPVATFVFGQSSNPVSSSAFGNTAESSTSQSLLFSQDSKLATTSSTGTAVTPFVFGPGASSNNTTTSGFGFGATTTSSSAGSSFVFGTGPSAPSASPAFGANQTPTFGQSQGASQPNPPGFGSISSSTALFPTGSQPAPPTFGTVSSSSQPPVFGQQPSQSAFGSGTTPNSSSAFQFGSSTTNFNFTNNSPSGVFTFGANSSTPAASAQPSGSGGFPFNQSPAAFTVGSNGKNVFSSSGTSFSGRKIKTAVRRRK
# Results are given in words; binding and its absence hold for the method and conditions named. For some of these results: In cells and extracts the contact can be indirect. Some entries that bind do so weakly or less than the wild type.
# Experiments:
# [1] = molecular target: endogenous DYNLT1 (human (endogenous in K562)) (UniProt P63172); assay: co-IP; untransfected K562 cell lysate immunoprecipitated with rabbit anti-DYNLT1 antibody or rabbit IgG, Protein G beads; immunoblot with MAb414 (NUP153, NUP62) or anti-NUP98 antibody
# [2] = molecular target: GST-DYNLT1 N-terminus (aa 1–61) (human) (UniProt P63172); assay: pull-down; GST-DYNLT1, GST-DYNLT1 N- or C-terminus (or GST control) immobilized on beads, incubated 1 h at 4°C with 35S-labelled in vitro translated protein in TB-T (20 mM HEPES-KOH pH 7.4, 110 mM potassium acetate, 2 mM MgCl2, 0.1% Tween 20); SDS-PAGE and autoradiography of bound and unbound fractions; only the target purified
# GST-DYNLT1 (human) = GST-DYNLT1 (human) (UniProt P63172); assay: as above
# [3] = molecular target: GST-DYNLT1 C-terminus (aa 62–113) (human) (UniProt P63172); assay: as above
# GST-HOXA9 = GST-HOXA9 (UniProt P31269); assay: pull-down; GST, GST-NUP98-HOXA9 or GST-HOXA9 immobilized on beads, incubated with purified recombinant DYNLT1 in TB-T (20 mM HEPES-KOH pH 7.4, 110 mM potassium acetate, 2 mM MgCl2, 0.1% Tween 20), 1 h at 4°C; SDS-PAGE, Coomassie blue; both purified
binding [1],binding [2],binding (GST-DYNLT1 (human)),binding [3],Substance,also measured
binds,–,–,–,endogenous NUP62 (from UniProt P37198 1-522),–
binds,–,–,–,endogenous NUP98 (from UniProt P52948 1-880),–
binds,–,–,–,endogenous NUP153 (from UniProt P49790 1-1475),–

# Second part, the substance before the results:
Substance,binding [1],binding [2],binding (GST-DYNLT1 (human)),binding [3],also measured
in vitro translated full length NUP62 (from UniProt P37198 1-522),–,no binding,binds,binds weakly,–
in vitro translated full length NUP153 (from UniProt P49790 1-1475),–,no binding,binds,binds weakly,–
purified recombinant DYNLT1 (Dynein Light Chain 1) (from UniProt P63172 1-113),–,–,–,–,binding (GST-HOXA9): no binding
